Reference: publication PMC10668032
The other results are listed elsewhere or left out. At the low end of the ranking the order means little.

What follows are sequences tested against SIX1 homeodomain (reference allele) (UniProt Q15475) (assay: universal protein binding microarray). Settings: Universal all-10-mer PBM (8x60K, AMADID 030236), 300 nM GST-tagged protein, Alexa Fluor 488 anti-GST; buffer, salt, pH and temperature not stated; high values mean tight binding; most listed sequences are background and not binding sites; double strand, one strand shown.

Row | Sequence | binding signal [E-score]
1 | CCCGACAG | 0.013
2 | TGGGAAAA | -0.181
3 | AGATCCTG | 0.252
4 | AAGACAGA | -0.099
5 | CATATACG | 0.24
6 | CCGACTCG | 0.0999
7 | ACTCCTAT | 0.0782
8 | CAATACCC | 0.387
9 | CTCAACGA | 0.0195
10 | CGCACACG | -0.0156
11 | CATTCTCA | 0.0592
12 | GAGGAACA | -0.0362
13 | CGAGGACC | -0.146
14 | CTATCTTA | -0.0436
15 | ACGCTAAA | -0.0647
16 | CGTCAAGA | -0.164
17 | TCCTAGCA | -0.151
18 | CTCATCAG | 0.105
19 | AACGCGCG | -0.113
20 | CGAGACCG | 0.136
21 | GAACTAAA | -0.0021
22 | GATAGCCC | 0.303

Row | Sequence | binding signal [E-score]
23 | ACCGACGC | -0.153
24 | CAATCGTG | -0.107
25 | CGCAAGCA | -0.0606
26 | CCCTAAAA | 0.0382
27 | AAACTGCC | -0.0526
28 | CGGGTAAA | 0.0352
29 | GAAGCTTA | -0.0523
30 | ATAGACGG | 0.0881
31 | CAGAAACG | -0.137
32 | CGCGACGA | -0.0396
33 | GATACTGA | 0.423
34 | ACCGGAGC | -0.0324
35 | CCACCGCC | -0.162
36 | CTAACATA | 0.108
37 | AACCGCGC | -0.205
38 | TCTCAGCA | 0.0634
39 | GGAGTTCA | -0.184
40 | GGAATGAA | -0.115
41 | CTTTGCGC | -0.284
42 | AGAACACA | -0.146
43 | ATCCCCAG | 0.239
44 | AATTCGCT | -0.137

Row | Sequence | binding signal [E-score]
45 | TCCGCTCA | -0.0747
46 | GCGTTTTA | -0.0508
47 | GACAACGC | -0.302
48 | ACCCAGTA | 0.198
49 | GCGACTGA | -0.00831
50 | CGGGATAG | 0.268
51 | ACAGCACT | -0.273
52 | CCTGCATC | 0.125
53 | CAGCGTGA | -0.00634
54 | CATAACTA | 0.00415
55 | GCCCATCC | 0.14
56 | CCGGCCCG | -0.00181
57 | TAAGCACA | -0.0726
58 | CCTCTGAA | -0.0853
59 | ACTTTATA | 0.0208
60 | AAAAGTTC | -0.298
61 | GCGGACGA | 0.073
62 | AACTAATT | -0.121
63 | GATATGTA | 0.383
64 | CATGACAC | 0.35
65 | CTATGTTC | -0.0618
66 | GTACCATA | 0.0944

Row | Sequence | binding signal [E-score]
67 | ACTCTCCC | -0.0551
68 | GACGGAAA | -0.18
69 | CTCGGCTC | -0.18
70 | TCTTTCCA | -0.203
71 | CTCCACCA | -0.202
72 | AGCCGCAA | -0.101
73 | GAACACGC | -0.0654
74 | AATCACCT | -0.0396
75 | AGTCGTTG | -0.187
76 | CAAGCGCA | 0.0156
77 | GGGAGTAA | -0.0228
78 | TCCATGGA | 0.083
79 | CTAACGGC | -0.0611
80 | ATCAGAGG | 0.0323
81 | TCTGGACA | -0.0481
82 | ATTATTGG | -0.0947
83 | AAGACCTT | -0.178
84 | ATCGTCGC | 0.134
85 | CTGGGATC | 0.297
86 | CACAGGTG | 0.105
87 | GCGCTTAA | -0.123
88 | TAGAATCA | 0.0486

Row | Sequence | binding signal [E-score]
89 | CAAGACAA | -0.162
90 | GTTCACCA | -0.158
91 | TAGGCATA | 0.117
92 | GCAGGGGA | -0.0603
93 | ACTCCAAG | -0.0501
94 | TCACGCCA | 0.0726
95 | CCACTGGC | -0.12
96 | GAGAGGGA | 0.0291
97 | GCTCCCAA | -0.272
98 | AATGTTCA | -0.295
99 | AGTTAAGG | -0.107
100 | CAGTCTCC | -0.0628
101 | AATGACTG | -0.2
102 | AATATGAT | 0.309
103 | AAATGTCT | -0.278
104 | GATCTAGC | 0.215
105 | CCCAGAGA | 0.0477
106 | GCCCAAGA | -0.128
107 | CGCTAACC | -0.143
108 | AGACCATG | 0.0671
109 | CTGAATTC | -0.128
110 | CATCATCG | 0.149
